Measured values as given in PubChem BioAssay AID1963854 (Molecular Pharmacology Branch, DTP, NCI, 2024).
Not every entry of the source has a single result; some have several. This is not the full list of results. An entry can have further records. Values that stand side by side are repeated measurements in other runs, samples, wells, individuals or studies. Signs of the kind (2×) stand for listed records that agree. Marks such as [2022-09] give the month of the run.

Test system: 186277-243-T-J2-PDC complex spheroid viability
Assay: Anticancer human tumor 186277-243-T-J2-PDC patient-derived colon adenocarcinoma cell line growth inhibition [POLQ]
Conditions: stronger effect = lower value
Protocol: Multicellular complex tumor spheroid response to Polymerase (POL) inhibitors (novobiocin, ART-558, RP6685) in combination with a variety of drugs and investigational agents in selected tumor cell lines
The POL inhibitors (novobiocin, ART-558, and RP6685) were evaluated both individually and in combination with standard of care and investigational anticancer small molecules within a complex spheroid model of solid tumors. . Complex spheroids include a stromal component modeled by human endothelial cells (HUVEC) and fibroblasts modeled by human mesenchymal stem cells (MSCs). The concentration ranges selected for each drug and investigational agent were based upon clinically achievable concentrations if the clinical Cmax of the agent was known.
Compounds. The drugs and investigational agents: novobiocin (NSC847541), ART-558 (NSC835418), RP-6685 (NSC848927), peposertib (NSC802822), ceralasertib (NSC780249), elimusertib (NSC800525), camonsertib (NSC841442), AZD-1390 (NSC803789), olaparib (NSC753686), talazoparib (NSC767125), rucaparib (NSC756644), sotorasib (NSC818433), MRTX-1133 (NSC836407), SN-38 (NSC673596), topotecan (NSC609699), epotoside (NSC141540), doxorubicin (NSC123127), gemcitabine (NSC613327), 5-fluorouracil (NSC19893), paclitaxel (NSC125973), vemurafenib (NSC761431), MSA-2 (NSC828583), SN-011 (NSC837082), adavosertib (NSC754352), prexasertib (NSC758257), carboplatin (NSC241240) and oxaliplatin (NSC266046), were obtained from the National Cancer Institute (NCI) Developmental Therapeutics Program Chemical Repository (21). The FDA-approved anticancer drug set is available from the Developmental Therapeutics Program at https://dtp.cancer.gov/organization/dscb/obtaining/. […] The stock solutions were prepared in dimethyl sulfoxide (DMSO, Sigma-Aldrich, St. Louis, MO, cat. D2650), except for the platinum compounds which were prepared in saline (Quality Biological, Gaithersburg, MD, cat. 114-055-101), at 800-fold the tested concentration and stored at -70 degrees C prior to their use. All drugs and investigational agents were tested over a range starting from a high concentration at or near the clinical Cmax and decreasing in half-log increments. If the clinical Cmax for an agent had not been determined, the highest concentration tested was 10 microM, except for SN-38, which was tested at a high concentration of 1 microM.
Cell Culture. All cells were maintained in an incubator at 37 degrees C and 5% CO2 with 95% humidity. The PDC lines were cultured according to standard operating procedures established by the NCI PDMR (https://pdmr.cancer.gov). Table 3 of the manuscript, lists the cell lines along with the number of the three cell types plated to form the mct-spheroids and media for tumor cell growth. […]
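Also: spheroids exposed to compounds for seven days; 100% = DMSO vehicle control viability.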

SMILES: COc1cccc(OCCCN)c1-c1cc(Nc2cnc(C#N)cn2)n[nH]1
- viability, T/C (compound alone 0.00316 µM): 7.29% [2023-10] and 35.3%, 42.5% [2023-11]

SMILES: COC1C(OC(N)=O)C(O)C(Oc2ccc3c(O)c(NC(=O)c4ccc(O)c(CC=C(C)C)c4)c(=O)oc3c2C)OC1(C)C (centres undefined)
- viability, T/C (compound alone 1 µM): 103 (3×), 93.3, 91.3, 94, 100, 108, 118, 106, 102, 90.6, 98.2%

SMILES: COc1cccc2c1C(=O)c1c(O)c3c(c(O)c1C2=O)CC(O)(C(=O)CO)CC3OC1CC(N)C(O)C(C)O1 (centres undefined)
- viability, T/C (compound alone 0.316 µM): 8.92%, 10.6% [2023-10] and 37.5% [2023-11]

SMILES: Nc1ccc(C#CCN(C(=O)Cc2ncc(C(F)(F)F)cc2C(F)(F)F)c2ccc(F)cc2)nn1
- viability, T/C (compound alone 10 µM): 85, 94.5, 83.9, 88.9, 113, 98.9, 88.5, 86.3, 86.8, 81.2, 87.2, 79.1, 84.8%
